Data published in US9980965B2, “Treatment of autoimmune disease” (MingSight Pharmaceuticals, Inc., priority 2014, dated 2018).

Experiments:
[1] = target: Human PKC alpha (Homo sapiens, UniProt P17252); test: In vitro PKC inhibition, PKC alpha; assay type: biochemical
[2] = target: Human PKC theta (Homo sapiens, UniProt Q04759); test: In vitro PKC inhibition, PKC theta; assay type: biochemical
Text: (§1) The methods for these determinations have been described (Grant, et al. 2010, Eur J Pharmacol. 627:16-25).

[3] = target: T1, Human PKC epsilon (Homo sapiens, UniProt Q02156); test: In vitro PKC inhibition, PKC epsilon; assay type: biochemical
T1 sequence (Q02156 1-737): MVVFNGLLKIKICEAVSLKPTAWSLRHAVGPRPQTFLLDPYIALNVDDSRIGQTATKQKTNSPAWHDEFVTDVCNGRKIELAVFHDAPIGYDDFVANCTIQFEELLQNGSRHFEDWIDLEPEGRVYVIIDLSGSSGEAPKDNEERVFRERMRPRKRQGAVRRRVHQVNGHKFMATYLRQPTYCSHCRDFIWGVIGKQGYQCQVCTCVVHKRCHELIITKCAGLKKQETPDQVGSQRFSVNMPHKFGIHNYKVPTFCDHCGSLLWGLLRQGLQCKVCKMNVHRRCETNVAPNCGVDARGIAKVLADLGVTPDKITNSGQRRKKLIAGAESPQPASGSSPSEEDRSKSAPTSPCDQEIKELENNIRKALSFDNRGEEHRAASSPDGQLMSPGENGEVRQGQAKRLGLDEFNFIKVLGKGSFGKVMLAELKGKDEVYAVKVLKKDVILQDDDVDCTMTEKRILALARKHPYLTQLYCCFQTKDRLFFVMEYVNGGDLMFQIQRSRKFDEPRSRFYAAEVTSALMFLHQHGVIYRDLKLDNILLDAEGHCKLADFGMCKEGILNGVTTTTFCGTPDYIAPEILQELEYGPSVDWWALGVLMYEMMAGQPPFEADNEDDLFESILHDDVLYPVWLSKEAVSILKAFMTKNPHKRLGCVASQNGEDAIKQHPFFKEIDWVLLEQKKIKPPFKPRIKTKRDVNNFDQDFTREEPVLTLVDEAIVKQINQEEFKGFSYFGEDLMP
Text: as §1

[4] = target: Human PKC eta (Homo sapiens, UniProt P24723); test: In vitro PKC inhibition, PKC eta; assay type: biochemical
Text: as §1

[5] = target: T2, Human PKC zeta (Homo sapiens, UniProt Q05513); test: In vitro PKC inhibition, PKC zeta; assay type: biochemical
T2 sequence (Q05513 1-592): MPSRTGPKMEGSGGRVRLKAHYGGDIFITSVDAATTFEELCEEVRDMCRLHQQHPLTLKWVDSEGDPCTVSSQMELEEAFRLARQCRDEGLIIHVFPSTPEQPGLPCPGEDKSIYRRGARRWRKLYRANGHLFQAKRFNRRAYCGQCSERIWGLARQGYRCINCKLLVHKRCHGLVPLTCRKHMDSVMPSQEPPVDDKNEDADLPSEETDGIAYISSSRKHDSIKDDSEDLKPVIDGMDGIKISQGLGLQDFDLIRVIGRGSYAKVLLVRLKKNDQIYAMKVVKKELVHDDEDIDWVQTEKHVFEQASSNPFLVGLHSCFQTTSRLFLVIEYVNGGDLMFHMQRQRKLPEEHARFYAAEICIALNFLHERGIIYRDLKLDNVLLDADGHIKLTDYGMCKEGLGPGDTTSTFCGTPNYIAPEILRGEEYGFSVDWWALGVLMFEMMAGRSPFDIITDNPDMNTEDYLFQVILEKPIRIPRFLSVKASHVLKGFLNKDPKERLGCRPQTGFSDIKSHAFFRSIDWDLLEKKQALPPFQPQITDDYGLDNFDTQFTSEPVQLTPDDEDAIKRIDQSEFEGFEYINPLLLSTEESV
Text: as §1

[6] = target: T3, Human PRKCN (PKD3) (Homo sapiens, UniProt O94806); test: In vitro inhibition, PRKCN (PKD3); assay type: biochemical
T3 sequence (O94806 1-890): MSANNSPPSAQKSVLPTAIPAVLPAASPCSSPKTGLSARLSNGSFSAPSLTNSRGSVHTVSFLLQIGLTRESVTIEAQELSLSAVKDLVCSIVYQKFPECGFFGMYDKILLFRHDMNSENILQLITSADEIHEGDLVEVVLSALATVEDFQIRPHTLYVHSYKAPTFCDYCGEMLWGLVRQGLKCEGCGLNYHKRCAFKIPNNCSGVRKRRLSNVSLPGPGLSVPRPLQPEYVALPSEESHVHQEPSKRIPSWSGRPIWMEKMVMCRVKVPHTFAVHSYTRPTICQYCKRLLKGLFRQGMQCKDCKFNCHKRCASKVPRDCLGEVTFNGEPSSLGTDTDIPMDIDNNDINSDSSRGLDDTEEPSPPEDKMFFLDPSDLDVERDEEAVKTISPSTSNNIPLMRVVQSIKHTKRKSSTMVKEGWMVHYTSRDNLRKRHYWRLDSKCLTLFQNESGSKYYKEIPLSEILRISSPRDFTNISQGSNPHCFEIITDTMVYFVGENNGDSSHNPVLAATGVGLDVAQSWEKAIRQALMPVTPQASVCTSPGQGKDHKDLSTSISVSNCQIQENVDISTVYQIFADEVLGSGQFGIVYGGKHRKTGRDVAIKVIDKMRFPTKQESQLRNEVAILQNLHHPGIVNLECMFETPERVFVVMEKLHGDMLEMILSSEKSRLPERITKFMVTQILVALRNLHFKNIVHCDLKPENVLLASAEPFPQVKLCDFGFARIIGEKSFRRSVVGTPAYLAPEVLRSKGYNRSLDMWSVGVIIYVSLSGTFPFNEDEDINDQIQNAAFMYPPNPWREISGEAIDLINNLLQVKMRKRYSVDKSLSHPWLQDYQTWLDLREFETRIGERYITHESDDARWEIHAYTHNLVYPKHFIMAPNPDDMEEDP
Text: as §1

[7] = system: MRL/lpr mouse model of lupus; test: MRL/lpr mouse model of lupus; assay type: in vivo, mice
[8] = system: experimental autoimmune uveitis; test: Lewis rat model of experimental autoimmune uveitis; assay type: in vivo
Protocol: The animal model used in this testing was the Lewis rat model of experimental autoimmune uveitis, a well-known model of uveitis (Nussenblatt R B, et al, 1981, J Clin Invest. 67(4): 1228-1231; Mochizuki M, et al, 1985, Invest Ophthalmol Vis Sci. 26(2): 226-232). Compound A was prepared as an oral suspension and dosed orally, once per day at two doses, 10 and 20 mg/kg. The efficacy was compared to animals that received the positive control cyclosporine dosed at 25 mg/kg. […] Efficacy in the model was assessed by clinical grading and by assessment of the sections of the eyes prepared for histology at the completion of the experiment.

[9] = both doses, oral suspension BID, 12 weeks (final 180 and 240 mg/kg/day)
[10] = 10 and 20 mg/kg orally, once per day
[11] = very modest doses (10 and 20 mg/kg orally, once per day)

Cc1ncc(F)c(Nc2n[nH]c3c2CN(C(=O)N2C[C@@H](C)N(CC4CCOCC4)C[C@@H]2C)C3(C)C)n1 [Compound A, 5-{[(2S,5R)-2,5-Dimethyl-4-(tetrahydro-2H-pyran-4-ylmethyl)piperazin-1-yl]carbonyl}-N-(5-fluoro-2-methylpyrimidin-4-yl)-6,6-dimethyl-1,4,5,6-tetrahydropyrrolo[3,4-c]pyrazol-3-amine]
IC50 [1]: 0.0023 µM
Ki ([1]; recombinant PKC alpha): 0.0104 µM
IC50 [2]: 0.0256 µM
IC50 [3]: 0.808 µM
IC50 [4]: > 1 µM
IC50 [5]: > 1 µM
IC50 [6]: 0.131 µM
blood urea nitrogen (BUN) values (in words) ([7]; across the two doses, statistically significant at the higher dose): dose-dependent reduction
lymphadenopathy score (FIG. 2) [7, 9]: reduction
mean absolute spleen weight (FIG. 3) [7, 9]: reduction
mean lymph node weight (FIG. 4) [7, 9]: reduction
protein in the urine (FIG. 1) [7, 9]: significant reduction
animals found to have a BUN≤33 mg/dL (normal range for the mouse) ([7]; two treatment groups together, 21/23 animals, control 2/11 (18%)): 91%
disease severity by clinical score (FIG. 6) [8, 10]: dose dependent decrease
disease severity by histopathological score (FIG. 7) [8, 10]: dose dependent decrease
reduction in clinical scores [8, 11]: greater than 50%
reduction in histopathological scores [8, 11]: greater than 75%
